Assay results as given in the supplement of paper PMC4604168 (melanoma cell lines).
This is one part of the list. Most values come without repeats; read them as rough.

Columns and labels:
Experiment in all cases: cell count relative to DMSO control; melanoma cells; higher = more viable cells
Conditions in all cases: library dose: standard library concentration; 72 h
[1] = tested on: SkMel28
[2] = tested on: SkMel2
[3] = tested on: SkMel30
[4] = tested on: SkMel5
[5] = tested on: UACC257
[6] = tested on: UACC62
[7] = tested on: WM115
[8] = tested on: WM1716
[9] = tested on: WM1745
[10] = tested on: WM3526
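Further: cells treated in 1,536-well plates, then fixed and DAPI-stained, with nuclei counted from automated high-throughput microscope images.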

Row | SMILES | cell count [1] [%] | cell count [2] [%] | cell count [3] [%] | cell count [4] [%] | cell count [5] [%] | cell count [6] [%] | cell count [7] [%] | cell count [8] [%] | cell count [9] [%] | cell count [10] [%]
1 | O=C(/C=C/c1cccnc1)NCCCCC1CCN(C(=O)c2ccccc2)CC1 + C[C@@H](N)c1ccc(C(=O)Nc2ccnc3[nH]ccc23)cc1 [RKI983] (first compound 0.05 µM, partner dose 2 µM) | 89 | 15.9 | 76.4 | 48 | 53.7 | 88.6 | 85.4 | 13 | 40.2 | 99.7
2 | O=C(/C=C/c1cccnc1)NCCCCC1CCN(C(=O)c2ccccc2)CC1 + Cc1cc(Nc2cc(N3CCN(C)CC3)nc(/C=C/c3ccccc3)n2)n[nH]1 [ENMD2076] (first compound 0.05 µM, partner dose 0.2 µM) | 60.2 | 15.6 | 89.6 | 85 | 87.8 | 58.8 | 59 | 68.9 | 50.3 | 70.8
3 | Cc1ccc(Nc2nccc(N(C)c3ccc4c(C)n(C)nc4c3)n2)cc1S(N)(=O)=O [Pazopanib] + NC(=O)c1ccc(N(C(N)=O)c2c(F)cccc2F)nc1-c1ccc(F)cc1F [VX702] (first compound 2 µM, partner dose 2 µM) | 68.2 | 96.1 | 88 | 71.2 | 91.3 | 92.7 | 75.1 | 109 | 96.8 | 84
4 | Cc1ccc(Nc2nccc(N(C)c3ccc4c(C)n(C)nc4c3)n2)cc1S(N)(=O)=O [Pazopanib] + Cn1nnc2c(C(N)=O)ncn2c1=O [temozolomide] (first compound 2 µM, partner dose 10 µM) | 43 | 85.1 | 76.7 | 76.1 | 83 | 66.6 | 72.5 | 54.4 | 96.5 | 85
5 | O=C(/C=C/c1cccnc1)NCCCCC1CCN(C(=O)c2ccccc2)CC1 + CC(=O)O[C@@]12CO[C@@H]1C[C@H](O)[C@@]1(C)C(=O)[C@H](O)C3=C(C)[C@@H](OC(=O)[C@H](O)[C@@H](NC(=O)OC(C)(C)C)c4ccccc4)C[C@@](O)([C@@H](OC(=O)c4ccccc4)[C@H]21)C3(C)C [Docetaxel] (first compound 0.05 µM, partner dose 0.0005 µM) | 16 | 18.5 | 44.4 | 34.6 | 65.6 | 45.4 | 35.2 | 38.3 | 34.8 | 37.9
6 | Cc1ccc(Nc2nccc(N(C)c3ccc4c(C)n(C)nc4c3)n2)cc1S(N)(=O)=O [Pazopanib] + O=C(O)c1ccc2c(c1)nc(Nc1cccc(Cl)c1)c1ccncc12 [CX4945] (first compound 2 µM, partner dose 2 µM) | 55.5 | 70.9 | 57.9 | 53.9 | 101 | 62.6 | 76.5 | 92 | 89.3 | 55.6
7 | CC1(C)CCC(c2ccc(Cl)cc2)=C(CN2CCN(c3ccc(C(=O)NS(=O)(=O)c4ccc(N[C@H](CCN5CCOCC5)CSc5ccccc5)c(S(=O)(=O)C(F)(F)F)c4)cc3)CC2)C1 + CCN(CC)CCNC(=O)c1c(C)[nH]c(/C=C2\C(=O)Nc3ccc(F)cc32)c1C [sunitinib] (first compound 2 µM, partner dose 2 µM) | 19.7 | 28.9 | 12 | 32.7 | 33.8 | 19.1 | 17 | 71.9 | 4.1 | 42.8
8 | Cc1ccc(Nc2nccc(N(C)c3ccc4c(C)n(C)nc4c3)n2)cc1S(N)(=O)=O [Pazopanib] + CO[C@@H]1[C@H](N(C)C(=O)c2ccccc2)C[C@H]2O[C@]1(C)n1c3ccccc3c3c4c(c5c6ccccc6n2c5c31)C(=O)NC4 [Midostaurin] (first compound 2 µM, partner dose 0.4 µM) | 47.5 | 41.1 | 67.8 | 49.9 | 64.7 | 55.4 | 43 | 46 | 35.4 | 63.5
9 | O=C(/C=C/c1cccnc1)NCCCCC1CCN(C(=O)c2ccccc2)CC1 + CN(c1ncccc1CNc1nc(Nc2ccc3c(c2)CC(=O)N3)ncc1C(F)(F)F)S(C)(=O)=O [PF562271] (first compound 0.05 µM, partner dose 0.4 µM) | 78.2 | 11 | 114 | 86 | 82.4 | 57.7 | 74.2 | 55.5 | 80.8 | 106
10 | Cc1ccc(Nc2nccc(N(C)c3ccc4c(C)n(C)nc4c3)n2)cc1S(N)(=O)=O [Pazopanib] + O=C(O)[C@@H]1[O][Sb](=[O])([O][Sb]2(=[O])[O][C@H]([C@H](O)CO)[C@H](O)[C@H](C(=O)O)[O]2)[O][C@H]([C@H](O)CO)[C@@H]1O [stibogluconate] (first compound 2 µM, partner dose 10 µM) | 94.9 | 95.8 | 79.6 | 94 | 93.2 | 106 | 96 | 82.9 | 83.4 | 79.1
